Assay results as given in paper PMC12199328.
Numbering of substitutions follows the chain as printed. No constants are given. Whether binding was seen depends on the method and setting. Binding seen in cells or lysates may run through a third protein. Some binding calls cover weakened binding; strength is not graded here. For some assays here: Where a sequence is shown, tags or fusion partners need not be part of it. Each block holds one binder with its values, some of them ahead of it.

Columns and labels:
[1] = target: T1, PPARα (endogenous, neonatal rat cardiomyocytes) (rat (endogenous in NRCMs)) (UniProt P37230); assay: co-IP; endogenous USP4 and PPARα in lysates of HL1 mouse cardiomyocytes, NRCMs and AC16 human cardiomyocytes; immunoblots
T1 sequence: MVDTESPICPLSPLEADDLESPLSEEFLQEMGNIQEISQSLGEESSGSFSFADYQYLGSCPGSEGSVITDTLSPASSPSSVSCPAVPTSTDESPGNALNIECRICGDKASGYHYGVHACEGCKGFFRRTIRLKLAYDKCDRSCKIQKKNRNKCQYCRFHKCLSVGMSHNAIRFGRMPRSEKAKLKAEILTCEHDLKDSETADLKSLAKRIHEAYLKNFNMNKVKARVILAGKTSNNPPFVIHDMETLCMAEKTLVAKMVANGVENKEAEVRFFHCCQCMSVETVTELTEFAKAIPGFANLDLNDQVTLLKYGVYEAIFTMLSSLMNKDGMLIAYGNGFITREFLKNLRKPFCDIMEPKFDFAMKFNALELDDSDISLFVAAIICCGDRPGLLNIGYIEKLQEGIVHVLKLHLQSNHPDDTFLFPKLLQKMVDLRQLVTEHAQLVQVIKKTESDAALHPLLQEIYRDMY

[2] = target: T2, PPARα (endogenous, HL1 mouse cardiomyocytes) (mouse (endogenous in HL1)) (UniProt P23204); assay: as above
T2 sequence: T1 sequence with L41I, S50G, A85V, V86I, T88A, N96S, A135V, A207G, N265D

[3] = target: T3, PPARα (endogenous, AC16 human cardiomyocytes) (human (endogenous in AC16)) (UniProt Q07869); assay: as above
T3 sequence: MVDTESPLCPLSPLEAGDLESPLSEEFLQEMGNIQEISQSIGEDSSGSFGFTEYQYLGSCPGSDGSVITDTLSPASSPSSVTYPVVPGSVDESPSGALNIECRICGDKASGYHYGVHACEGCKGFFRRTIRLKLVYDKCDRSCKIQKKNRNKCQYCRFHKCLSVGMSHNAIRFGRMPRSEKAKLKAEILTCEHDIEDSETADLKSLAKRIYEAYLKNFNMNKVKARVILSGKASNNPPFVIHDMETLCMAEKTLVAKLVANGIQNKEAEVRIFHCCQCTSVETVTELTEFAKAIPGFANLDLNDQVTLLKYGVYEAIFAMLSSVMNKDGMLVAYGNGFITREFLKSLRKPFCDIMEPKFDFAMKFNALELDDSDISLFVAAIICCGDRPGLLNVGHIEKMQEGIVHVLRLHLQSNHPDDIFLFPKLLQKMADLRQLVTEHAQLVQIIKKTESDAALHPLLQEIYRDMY

[4] = target: T4, Flag-PPARα (peroxisome proliferator-activated receptor alpha) (UniProt Q07869); assay: co-IP; HEK293T cells transfected 24 hours with Flag-PPARα and Myc-USP4 (full-length or truncated), alone or in combination; lysates immunoprecipitated with Flag or Myc antibodies, blotted with Flag or Myc antibodies
T4 sequence: T3 sequence

[5] = target: T5, Flag-PPARα with deletion of amino acids 110-194 (DBD) (UniProt Q07869); assay: as above
T5 sequence: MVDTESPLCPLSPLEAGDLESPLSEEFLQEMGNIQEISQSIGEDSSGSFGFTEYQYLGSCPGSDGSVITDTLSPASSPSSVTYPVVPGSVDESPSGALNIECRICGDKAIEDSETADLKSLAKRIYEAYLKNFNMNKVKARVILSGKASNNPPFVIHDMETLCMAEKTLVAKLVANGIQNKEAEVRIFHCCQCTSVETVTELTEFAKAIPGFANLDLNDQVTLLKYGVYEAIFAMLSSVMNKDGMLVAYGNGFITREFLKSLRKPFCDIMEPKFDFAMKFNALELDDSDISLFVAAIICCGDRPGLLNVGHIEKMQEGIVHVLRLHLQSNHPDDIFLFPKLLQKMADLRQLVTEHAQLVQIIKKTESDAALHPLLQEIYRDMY

B2: USP4 (endogenous, HL1 mouse cardiomyocytes) (enzyme, UniProt P35123 1-962)
chain: MAEGRGSRERPDVETQKTELGALMGTTLQRGAQWYLIDSRWFKQWKKYVGFDSWDMYNVGEHNLFPGPIDNSGLFSDPESQTLKEHLIDELDYVLVPAEAWNKLLNWYGCVEGQQPIVRKVVEHGLFVKHCKVEVYLLELKLCENSDPTNVLSCHFSKADTIATIEKEMRKLFNIPAERETRLWNKYMSNTYEQLSKLDNTIQDAGLYQGQVLVIEPQNEDGTWPRQSLQSKSSTAPSRNFTTSSKPSASPYCSVSASLIANGDSTNSSGMHSSGVSRGGSGFSASYNCQEPPSPHIQPGLCGLGNLGNTCFMNSALQCLSNTAPLTEYFLKDEYEAEINRDNPLGMKGEIAEAYAELIKQMWSGRDTHVAPRMFKTQVGRFAPQFSGYQQQDSQELLAFILDGLHEDLNRVKKKPYLEPKDANGRPDAVVAKEAWENHRLRNDSVIVDTFHGLFKSTLVCPECAKVSVTFDPFCYLTLPLPLKKDRIMEVFLVPADPQCRPIQYRVTVPLMGAISDLCEALSKLSGIAAENMVVTDVYNHRFHKIFQMDEGLSHITPRDDIFVYEVCNTSMDGSECITLPVYFREKKSRPSSASSGAVLYGQPLLVSVPKHKLTLESLYQAVCDRISRYIKQPLPDEFLSSPLEPGACNGSRSSYEGDEEEEMDHQEEGKEQLSEVEGSGEDDQGDDHSESAQKVKGQPRHKRLFTFSLVNSCGTADINSLATDGKLLKLNSRSTLAIDWDSETRSLYFDEQESEACEKHLSMSQPQKKKKAAVALRECIELFTTMETLGEHDPWYCPTCKKHQQATKKFDLWSLPKILVVHLKRFSYNRYWRDKLDTVVEFPVRALNMSEFVCDRSARPYVYDLIAVSNHYGAMGVGHYTAYAKNRLNGKWYYFDDSSVSLASEDQIVTKAAYVLFYQRRDDECSSTSSLGSFPGSDGGVKLSSSHQGMGDEEAYNMDTN
binding [2]: binds

B3: USP4 (endogenous, AC16 human cardiomyocytes) (enzyme, UniProt Q13107 1-963)
chain: MAEGGGCRERPDAETQKSELGPLMRTTLQRGAQWYLIDSRWFKQWKKYVGFDSWDMYNVGEHNLFPGPIDNSGLFSDPESQTLKEHLIDELDYVLVPTEAWNKLLNWYGCVEGQQPIVRKVVEHGLFVKHCKVEVYLLELKLCENSDPTNVLSCHFSKADTIATIEKEMRKLFNIPAERETRLWNKYMSNTYEQLSKLDNTVQDAGLYQGQVLVIEPQNEDGTWPRQTLQSKSSTAPSRNFTTSPKSSASPYSSVSASLIANGDSTSTCGMHSSGVSRGGSGFSASYNCQEPPSSHIQPGLCGLGNLGNTCFMNSALQCLSNTAPLTDYFLKDEYEAEINRDNPLGMKGEIAEAYAELIKQMWSGRDAHVAPRMFKTQVGRFAPQFSGYQQQDSQELLAFLLDGLHEDLNRVKKKPYLELKDANGRPDAVVAKEAWENHRLRNDSVIVDTFHGLFKSTLVCPECAKVSVTFDPFCYLTLPLPLKKDRVMEVFLVPADPHCRPTQYRVTVPLMGAVSDLCEALSRLSGIAAENMVVADVYNHRFHKIFQMDEGLNHIMPRDDIFVYEVCSTSVDGSECVTLPVYFRERKSRPSSTSSASALYGQPLLLSVPKHKLTLESLYQAVCDRISRYVKQPLPDEFGSSPLEPGACNGSRNSCEGEDEEEMEHQEEGKEQLSETEGSGEDEPGNDPSETTQKKIKGQPCPKRLFTFSLVNSYGTADINSLAADGKLLKLNSRSTLAMDWDSETRRLYYDEQESEAYEKHVSMLQPQKKKKTTVALRDCIELFTTMETLGEHDPWYCPNCKKHQQATKKFDLWSLPKILVVHLKRFSYNRYWRDKLDTVVEFPIRGLNMSEFVCNLSARPYVYDLIAVSNHYGAMGVGHYTAYAKNKLNGKWYYFDDSNVSLASEDQIVTKAAYVLFYQRRDDEFYKTPSLSSSGSSDGGTRPSSSQQGFGDDEACSMDTN
binding [3]: binds

The next lines start with the values.

binding [1]: binds
B1: USP4 (endogenous, neonatal rat cardiomyocytes) (enzyme, UniProt B2GUZ1 1-961)
chain: MAEGRGTHERPDVETQKTELGALMGTTLQRGAQWYLIDSRWFKQWKKYVGFDSWDMYNVGEHNLFPGPIDNSGLFSDPESQTLKEHLIDELDYVLVPTEAWNKLLNWYGCVEGQQPIVRKVVEHGLFVKHCKVEVYLLELKLCENSDPTNVLSCHFSKADTIATIEKEMRKLFNIPAERETRLWNKYMSNTYEQLSKLDNTIQDAGLYQGQVLVIEPQNEDGTWPRQTLQSKSSTAPSRNFTTSSKPSASPYSSMSASLIANGDSTNSSGMHNSGVSRGGAGFSASYNCQEPPSPHIQPGLCGLGNLGNTCFMNSALQCLSNTGPLTEYFLKDEYEAEINRDNPLGMKGEIAEAYAELIKQMWSGRDTHVAPRMFKTQVGRFAPQFSGYQQQDSQELLAFILDGLHEDLNRVKKKPYLEPKDANGRPDAVVAKEAWENHRLRNDSVIVDTFHGLFKSTLVCPECAKVSVTFDPFCYLTLPLPLKKDRIMEVFLVPADPHCRPIQYRVTVPLMGAISDLCEALSKLSGIAAENMVVTDVYNHRFHKIFQMDEGLSHITPRDDIFVYEICTTPMDGSEYITLPVYFREKKSRPSSTSSGAVLYGQPLLVSVPKHRLTLESLYQAVCERISRYIKQPLPEEFLSSPLEPGACNGSRGSYEGDEEEMDHQEEGKEQLSEVEESGEDSQGGDPTETTQKAKGPPRHKRLFTFSLVNSCGTADINSLATDGKLLKLNSRSTLAIDWDSETRSLYFDEQESEACEKHTSMSQPQKKKKAAIALRECIELFTTMETLGEHDPWYCPTCKKHQQATKKFDLWSLPKILVVHLKRFSYNRYWRDKLDTVVEFPVRALNMSEFVCDRAARPYVYDLIAVSNHYGAMGVGHYTAYAKNRLNGKWYYFDDSSVSLASEDQIVTKAAYVLFYQRRDDECPSTSSPVSFPGSDGGAKLSSSQQDLGEEEAYTMDTN

binding [4]: binds | binding [5]: no binding
B4: Myc-USP4 (ubiquitin specific protease 4) (enzyme, UniProt Q13107 1-963)
chain: B3 chain
